In a collection of fitness landscapes (doi:10.1126/science.1257360):
This is one part of the list.

B1: PhoQ; a variant is named by its letters at X, in order, P23837 (parent)
chain: MKKLLRLFFPLSLRVRFLLATAAVVLVLSLAYGMVALIGYSVSFDKTTFRLLRGESNLFYTLAKWENNKLHVELPENIDKQSPTMTLIYDENGQLLWAQRDVPWLMKMIQPDWLKSNGFHEIEADVNDTSLLLSGDHSIQQQLQEVREDDDDAEMTHSVAVNVYPATSRMPKLTIVVVDTIPVELKSSYMVWSWFIYVLSANLLLVIPLLWVAAWWSLRPIEALAKEVRELEEHNRELLNPATTRELTSLVRNLNRLLKSERERYDKYRTTLTDLTHSLKTPLXXLQXXLRSLRSEKMSVSDAEPVMLEQISRISQQIGYYLHRASMRGGTLLSRELHPVAPLLDNLTSALNKVYQRKGVNISLDISPEISFVGEQNDFVEVMGNVLDNACKYCLEFVEISARQTDEHLYIVVEDDGPGIPLSKREVIFDRGQRVDTLRPGQGVGLAVAREITEQYEGKIVAGESMLGGARMEVIFGRQHSAPKDE

Variants of: B1
Assay: enrichment ratio after two sorts for PhoP signalling (ratio (wild type AVST 3.29)); higher = more functional
Settings: with PhoP (E. coli)

Variant	enrichment ratio
NHIG	≤ 0.25
YCTT	≤ 0.25
SKRN	≤ 0.25
QNPH	≤ 0.25
GFDY	≤ 0.25
FYVN	≤ 0.25
IECG	≤ 0.25
MKCN	≤ 0.25
GYIS	≤ 0.25
RMNF	≤ 0.25
MVIF	≤ 0.25
LGKP	≤ 0.25
SEFE	4.76
LKGF	≤ 0.25
GPVS	≤ 0.25
TWGD	≤ 0.25
NHNR	≤ 0.25
LILC	≤ 0.25
FVKC	≤ 0.25
FTCP	≤ 0.25
TGRM	≤ 0.25
NRST	≤ 0.25
EHAK	≤ 0.25
CHSG	≤ 0.25

Variant	enrichment ratio
IMHL	≤ 0.25
MCYP	≤ 0.25
FNAM	≤ 0.25
ALRP	≤ 0.25
TCYR	≤ 0.25
VAWY	≤ 0.25
HLAY	≤ 0.25
GRCV	≤ 0.25
TQKA	≤ 0.25
MQEL	≤ 0.25
GKQM	≤ 0.25
SHNQ	0.892
LNYH	≤ 0.25
FDQE	≤ 0.25
VQDL	≤ 0.25
GNDA	≤ 0.25
VAYS	≤ 0.25
WVWR	≤ 0.25
ILDI	≤ 0.25
GWFW	≤ 0.25
WCLV	≤ 0.25
MVAI	5.52
YLML	≤ 0.25
MHMV	≤ 0.25

Variant	enrichment ratio
IQVG	≤ 0.25
NRMR	≤ 0.25
REAT	≤ 0.25
TNRH	≤ 0.25
QHIE	≤ 0.25
LNLE	≤ 0.25
YKER	≤ 0.25
RTHA	≤ 0.25
YSNP	≤ 0.25
PNFD	≤ 0.25
CAVP	≤ 0.25
WEGD	≤ 0.25
EIYP	≤ 0.25
NRGC	≤ 0.25
NMSV	≤ 0.25
SNWK	≤ 0.25
NDLM	≤ 0.25
EHRR	≤ 0.25
GYHP	≤ 0.25
NWFN	≤ 0.25
YRYW	≤ 0.25
HWMF	≤ 0.25
HRCS	≤ 0.25
HAIS	≤ 0.25

Variant	enrichment ratio
RSHL	0.36
PIVG	≤ 0.25
KKIK	≤ 0.25
WSPK	≤ 0.25
RKHC	≤ 0.25
AKDD	≤ 0.25
MPVL	≤ 0.25
IMLA	≤ 0.25
VVRA	≤ 0.25
WMIY	≤ 0.25
LQEC	≤ 0.25
ILCT	≤ 0.25
VACD	≤ 0.25
LMHT	≤ 0.25
AKPH	≤ 0.25
NFRS	≤ 0.25
HPTP	≤ 0.25
TGTK	≤ 0.25
YHES	≤ 0.25
FFWW	≤ 0.25
KRPR	≤ 0.25
MLGH	≤ 0.25
RWPD	≤ 0.25
GAVR	≤ 0.25

Variant	enrichment ratio
IEIK	≤ 0.25
QHKQ	≤ 0.25
FGIF	≤ 0.25
EFTV	≤ 0.25
ISPT	≤ 0.25
RYVS	≤ 0.25
GMTY	≤ 0.25
QLLC	≤ 0.25
AFCC	≤ 0.25
HAMF	≤ 0.25
SCSS	10.1
RRRH	≤ 0.25
NRHQ	≤ 0.25
FWFC	≤ 0.25
VLHG	≤ 0.25
WSNN	≤ 0.25
QSMR	≤ 0.25
RYWW	≤ 0.25
DAWS	≤ 0.25
VTKN	≤ 0.25
HMDG	≤ 0.25
THSN	2.57
RIQY	≤ 0.25
PSGG	≤ 0.25

Variant	enrichment ratio
SAGI	2.88
SCIH	1.7
IGCI	≤ 0.25
MLFY	≤ 0.25
WVHW	≤ 0.25
VVGI	≤ 0.25
QAVT	≤ 0.25
RGMK	≤ 0.25
FCTH	≤ 0.25
GYQL	≤ 0.25
VGMG	≤ 0.25
FVLF	4.75
IWGN	≤ 0.25
MWRS	≤ 0.25
AKDQ	≤ 0.25
NNFW	≤ 0.25
RIAY	≤ 0.25
GQVL	2.17
VINV	≤ 0.25
DWFF	≤ 0.25
GYFQ	≤ 0.25
LYSN	≤ 0.25
AWCC	≤ 0.25
IAKH	≤ 0.25

Variant	enrichment ratio
FIQP	≤ 0.25
QGWW	≤ 0.25
TKTI	0.391
KMIQ	≤ 0.25
GANN	≤ 0.25
KCPS	0.491
TIID	≤ 0.25
DCET	≤ 0.25
GNIN	≤ 0.25
SPMA	≤ 0.25
LHFF	≤ 0.25
DSYT	≤ 0.25
YRHE	≤ 0.25
MSTI	18.2
ICHG	≤ 0.25
WEPE	≤ 0.25
DPRI	≤ 0.25
MTKW	≤ 0.25
AWDK	≤ 0.25
RYVW	≤ 0.25
MHRP	≤ 0.25
DGSV	≤ 0.25
KIRV	≤ 0.25
GHKR	≤ 0.25

Variant	enrichment ratio
WGIM	≤ 0.25
KKEA	≤ 0.25
DCDL	≤ 0.25
PKRD	≤ 0.25
NADR	≤ 0.25
DHPE	≤ 0.25
HHWS	≤ 0.25
ILLT	≤ 0.25
MEHV	14.3
WNMW	≤ 0.25
VQTV	≤ 0.25
QLGN	≤ 0.25
RIDD	≤ 0.25
SGGW	≤ 0.25
HYFE	≤ 0.25
FYQI	≤ 0.25
EAYQ	≤ 0.25
MCLN	2.16
VVKK	≤ 0.25
ANSV	7.03
WRGL	≤ 0.25
HDSK	≤ 0.25
NGQI	≤ 0.25
PHNV	≤ 0.25

Variant	enrichment ratio
WRWA	≤ 0.25
TETY	6.06
AWHK	≤ 0.25
KMCA	≤ 0.25
LVPL	≤ 0.25
YSCL	7.36
LPTV	≤ 0.25
KTYY	≤ 0.25
IKHV	≤ 0.25
DDCM	≤ 0.25
YGEC	≤ 0.25
DVTL	≤ 0.25
WRFT	≤ 0.25
YWES	≤ 0.25
PHGG	≤ 0.25
GCTS	0.341
IVGV	≤ 0.25
HIAG	≤ 0.25
MAGS	17.7
HHWF	≤ 0.25
MSSH	0.512
NSHW	≤ 0.25
MMHT	≤ 0.25
GTKA	≤ 0.25

Variant	enrichment ratio
ILKA	≤ 0.25
IMSY	≤ 0.25
MNAS	6.24
RVYH	≤ 0.25
WGIG	≤ 0.25
ITVL	≤ 0.25
QRTW	≤ 0.25
ASEP	≤ 0.25
HVPH	≤ 0.25
NSPF	≤ 0.25
YYEE	≤ 0.25
FDEG	≤ 0.25
LFQD	≤ 0.25
RTEW	≤ 0.25
LTSV	≤ 0.25
RDEC	≤ 0.25
WMMF	≤ 0.25
HDVS	≤ 0.25
INDW	≤ 0.25
QMSN	0.645
FSSW	≤ 0.25
IKWT	≤ 0.25
LTNM	≤ 0.25
DTDR	≤ 0.25

Variant	enrichment ratio
KKMR	≤ 0.25
YCKV	≤ 0.25
WHQG	≤ 0.25
FGCQ	13.2
QNQC	≤ 0.25
VRIR	≤ 0.25
PPYF	≤ 0.25
TLFK	≤ 0.25
MGQQ	≤ 0.25
GARR	≤ 0.25
MTQY	≤ 0.25
NLFL	≤ 0.25
ISTH	≤ 0.25
RMYS	≤ 0.25
VWVH	≤ 0.25
LGVG	≤ 0.25
HLRN	≤ 0.25
VMTA	≤ 0.25
NNAW	≤ 0.25
ATKA	≤ 0.25
THQY	15
DREW	≤ 0.25
RHGI	≤ 0.25
AREF	≤ 0.25

Variant	enrichment ratio
TSFF	2.07
AMLH	3.19
QGTK	≤ 0.25
DYQS	≤ 0.25
WSCR	≤ 0.25
ESRM	≤ 0.25
PNGY	≤ 0.25
YFTV	≤ 0.25
DLLS	≤ 0.25
EDSK	≤ 0.25
QLLR	≤ 0.25
PTGC	≤ 0.25
QQNT	≤ 0.25
FQRG	≤ 0.25
KTVD	≤ 0.25
PACF	≤ 0.25
VWEF	≤ 0.25
ESNE	≤ 0.25
EHEG	≤ 0.25
GMLE	1.8
PAMI	≤ 0.25
WYNP	≤ 0.25
SCSV	9.38
SNCI	21.8

Variant	enrichment ratio
TGMI	13.2
MGDE	≤ 0.25
GCPG	≤ 0.25
GSPD	≤ 0.25
TIHE	≤ 0.25
FNSF	≤ 0.25
QSVV	≤ 0.25
WFIF	≤ 0.25
ICNM	≤ 0.25
DQFK	≤ 0.25
IGVS	≤ 0.25
QKFY	≤ 0.25
VQAN	≤ 0.25
IHEE	≤ 0.25
ETTG	≤ 0.25
MDIQ	0.654
EAFW	≤ 0.25
WDGM	≤ 0.25
